# Laboratory results taken from PubChem BioAssay AID1347165 (National Center for Advancing Translational Sciences (NCATS), 2019).
# Out of some 220,000 compounds screened, about 5,700 (2.6%) were called active. This list was built around the results that the source calls inconclusive (neither active nor inactive); the mix of calls is not that of the screen. Calls come from the whole dose curve; as a rule, active = well fitted inhibition curve with a large enough effect; inconclusive = small, poorly fitted or top-dose-only effect; inactive = no such curve, though single readings can be large or run the other way. Potencies beside an inconclusive call are fits to weak or partial responses and may not hold up.
# Target: Lysine-specific demethylase 5B (Homo sapiens) (UniProt Q9UGL1)
# Sequence of UniProt Q9UGL1 (Q9UGL1 whole entry, looked up): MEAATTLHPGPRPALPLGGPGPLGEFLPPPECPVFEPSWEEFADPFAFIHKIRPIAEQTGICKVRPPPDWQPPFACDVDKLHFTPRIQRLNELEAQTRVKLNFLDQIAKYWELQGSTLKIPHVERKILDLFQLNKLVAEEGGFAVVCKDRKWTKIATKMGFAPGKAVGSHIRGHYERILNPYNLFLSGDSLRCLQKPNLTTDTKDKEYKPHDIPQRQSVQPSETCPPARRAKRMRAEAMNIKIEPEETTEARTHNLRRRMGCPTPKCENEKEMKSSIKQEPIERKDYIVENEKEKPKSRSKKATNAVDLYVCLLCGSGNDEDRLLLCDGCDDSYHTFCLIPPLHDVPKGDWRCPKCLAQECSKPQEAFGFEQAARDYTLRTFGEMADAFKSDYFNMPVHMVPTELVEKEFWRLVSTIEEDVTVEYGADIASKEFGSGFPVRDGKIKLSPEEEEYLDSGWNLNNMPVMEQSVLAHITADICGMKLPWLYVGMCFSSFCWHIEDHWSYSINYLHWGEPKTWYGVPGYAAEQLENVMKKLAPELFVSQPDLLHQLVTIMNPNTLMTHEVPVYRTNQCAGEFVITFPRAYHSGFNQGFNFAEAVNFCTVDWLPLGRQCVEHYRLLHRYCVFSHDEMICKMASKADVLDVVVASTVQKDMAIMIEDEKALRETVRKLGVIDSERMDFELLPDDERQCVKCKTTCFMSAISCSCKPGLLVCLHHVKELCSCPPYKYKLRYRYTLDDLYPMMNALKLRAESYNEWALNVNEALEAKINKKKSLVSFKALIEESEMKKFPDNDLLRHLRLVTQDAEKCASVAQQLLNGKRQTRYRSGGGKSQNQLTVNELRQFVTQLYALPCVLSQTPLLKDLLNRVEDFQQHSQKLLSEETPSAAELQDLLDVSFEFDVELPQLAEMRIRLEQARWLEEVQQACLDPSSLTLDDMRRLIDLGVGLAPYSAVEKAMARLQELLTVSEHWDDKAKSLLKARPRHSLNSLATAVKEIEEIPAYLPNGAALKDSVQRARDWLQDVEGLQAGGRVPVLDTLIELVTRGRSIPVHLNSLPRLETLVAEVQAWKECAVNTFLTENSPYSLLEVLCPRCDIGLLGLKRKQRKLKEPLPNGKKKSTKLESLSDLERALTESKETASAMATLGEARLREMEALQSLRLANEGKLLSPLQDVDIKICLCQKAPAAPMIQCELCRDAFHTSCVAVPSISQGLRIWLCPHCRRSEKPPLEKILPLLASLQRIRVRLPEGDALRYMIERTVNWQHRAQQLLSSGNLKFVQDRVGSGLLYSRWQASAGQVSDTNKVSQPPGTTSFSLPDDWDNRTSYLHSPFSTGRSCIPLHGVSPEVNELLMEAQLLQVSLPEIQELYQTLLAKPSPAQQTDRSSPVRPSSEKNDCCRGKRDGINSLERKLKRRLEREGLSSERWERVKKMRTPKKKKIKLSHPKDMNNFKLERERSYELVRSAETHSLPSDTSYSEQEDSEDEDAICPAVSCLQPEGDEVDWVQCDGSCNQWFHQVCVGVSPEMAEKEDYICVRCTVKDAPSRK
# Assay: Primary screen for KDM5B Histone Demethylases FDH-coupled qHTS; note: nearly all actives have a fitted effect of over 70% in size; for activity change, negative = inhibition: 0% is about no effect
# Conditions: FDH-coupled NADH fluorescence (FDH is formaldehyde dehydrogenase); activity change, negative = inhibition: at 57.7 µM (top of the series) unless noted
# Summary of the method: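 Coupled FDH/NAD⁺ fluorescence readout. KDM5BΔAP 200 nM final; compound titration, 10 min RT preincubation; substrate mix 12.5 µM H3K4me3, 25 µM 2-OG, 50 µM Fe(II), 100 µM ascorbate, 0.25 mM NAD⁺, 0.25 U/mL FDH; ΔRFU over 30 min.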
# Potency is the fitted concentration of half-maximal effect; tags give direction and shape of the fitted curve.
SMILES,Potency,"activity change, negative = inhibition"
FC(F)(F)c1ccc2nc([C@H]3CCN(Cc4ncc[nH]4)C3)[nH]c2c1,"inconclusive: 39.8 µM [inhibitor, partial curve, poor fit]",–
CCc1c(C)[nH]c2ccc(OC)cc2c1=O,"inconclusive: 2 µM [inhibitor, full curve, poor fit]",–
COCCNC(=O)CN(C)c1nc(-c2ccncc2)nc2ccccc12,–,inactive: -0.388%
O=C(c1nc(-c2cc(Cl)cc(Cl)c2)c2ccccn12)N1CCCC1,active: 28.2 µM,–
CCc1ccc(NC(=O)CSc2nnc(-c3cccs3)n2-n2cccc2)cc1,–,inactive: -13.6%
C/C(=N\NC(=S)N/N=C(\C)c1ccccc1)c1ccccc1,"inconclusive: 39.8 µM [inhibitor, single point]",–
O=C(CCCn1ccnc1)N1CCn2nc(C(O)Cc3ccccc3)cc2C1 (centres undefined),–,inactive: 9.82%
Cc1ccc(CNC(=O)NCC2Cn3cccc3CN2C)cc1 (centres undefined),"inconclusive: 25.1 µM [inhibitor, partial curve, poor fit]",–
CCOC(=O)CC1COCCN1C(=O)c1cn(CCCc2ccccc2)nn1 (centres undefined),"inconclusive: 7.08 µM [inhibitor, single point]",–
CCCCc1ccc(NC(=O)CN2C(=O)NC3(CCOCC3)C2=O)cc1,–,inactive: -15.5%
COc1ccc(-c2cc(C)no2)cc1S(=O)(=O)N1CCN(c2ccccc2F)CC1,"inconclusive: 17.8 µM [inhibitor, partial curve, poor fit]",–
O=C(NCCCn1nccc1C1CC1)C1NCCc2[nH]cnc21 (centres undefined),"inconclusive: 20 µM [inhibitor, partial curve, poor fit]",–
CCOC(=O)C(NC(=O)c1ccc(F)cc1)c1c(C)nn(-c2ccc(F)cc2)c1C (centres undefined),–,inactive: -16%
O=C(Nc1cc(F)ccc1F)c1cc(-c2ccco2)nc2ccccc12,"inconclusive: 20 µM [inhibitor, partial curve, poor fit]",–
COc1cc(NC(=O)COc2ccc(C)c(C)c2)ccc1NC(=O)c1ccco1,"inconclusive: 35.5 µM [inhibitor, single point]",–
CCc1ccc(NS(=O)(=O)c2c(C)nc3sc(CC)nn3c2=O)cc1,"inconclusive: 15.8 µM [inhibitor, partial curve, poor fit]",–
CN(C)S(=O)(=O)c1cccc(NC(=O)CN(CCO)CC(=O)Nc2cccc(S(=O)(=O)N(C)C)c2)c1,"inconclusive: 28.2 µM [inhibitor, single point]",–
COC(=O)c1cc(F)ccc1NC(=O)N1CCc2[nH]cnc2C1c1ccc(Cl)cc1 (centres undefined),–,inactive: -13.8%
Cc1c(C(=O)Nc2ccc3c(c2)C(=O)OC3)nnn1-c1ccc(Br)cc1,–,inactive: 17.4%
O=C(Cc1ccccc1)NCC(=O)NNC(=O)c1nn(-c2ccccc2)c(=O)c2ccccc12,–,inactive: -18.6%
C#Cc1cccc(NS(=O)(=O)c2cccs2)c1,–,inactive: 11.1%
COc1cc(/C=N\NC(=O)c2ccc(-c3ccccc3)cc2)cc(Br)c1O,"inconclusive: 28.2 µM [inhibitor, single point]",–

SMILES,Potency,"activity change, negative = inhibition"
O=C(c1ccccc1Cl)N1CCC(c2nn(-c3ccc(Cl)cc3)c(=O)[nH]2)CC1,–,inactive: -4.13%
O=C1COCC2(CN1Cc1ccc(F)cc1Cl)CN(c1ccc(C(F)(F)F)cn1)C2,"inconclusive: 28.2 µM [inhibitor, single point]",–
CCNc1ncnc2sc3c(c12)CCN(Cc1cccnc1)C3,"inconclusive: 31.6 µM [inhibitor, partial curve, poor fit]",–
Cc1ccc(S(=O)(=O)N2CCC(C(=O)N3CCN(c4ccccn4)CC3)CC2)cc1,"inconclusive: 17.8 µM [inhibitor, partial curve, poor fit]",–
COc1ccc(CNc2nc3ccccc3c3nc(-c4ccccc4)nn23)cc1,"inconclusive: 35.5 µM [inhibitor, single point]",–
CC(C(=O)Nc1c(F)cccc1F)N1CCN(c2ccc(O)cc2)CC1 (centres undefined),"inconclusive: 22.4 µM [inhibitor, single point]",–
Cc1cc(C(=O)N2CCc3c(nc(-c4ccc(F)cc4)[nH]c3=O)C2)nn1C,"inconclusive: 28.2 µM [inhibitor, single point]",–
CC1=C[C@@H](CNC(=O)COc2ccccc2)[C@H](C(C)C)C[C@H]1Cc1nnc(-c2cncn2C)o1,–,inactive: -5.38%
CC1=C(C(=O)Nc2ccccc2C)C(c2ccc(C(=O)O)cc2)n2ncnc2N1 (centres undefined),–,inactive: 5.11%
C=CCOC(=O)C1=C(C)N=C2SC=C(CC(=O)N3CCCC3)N2C1c1ccc(OC)cc1OC (centres undefined),active: 28.2 µM,–
Cc1cc(-c2cc3c(ccn3C(C)C)c(C(=O)NCc3c(C)cc(C)[nH]c3=O)n2)ccn1,–,inactive: -5010% [at 86.2 µM]
CCn1c(C(=O)NCc2cc(Br)ccc2OC)cc2oc3ccccc3c21,"inconclusive: 31.6 µM [inhibitor, partial curve, poor fit]",–
COC(=O)c1cc(-c2ccc(C)c(C)c2)nc2ccccc12,"inconclusive: 3.55 µM [inhibitor, full curve, poor fit]",–
COCCN1C(=O)c2ccccc2C(C(=O)Nc2ccc3c(c2)OCCO3)C12CCCC2 (centres undefined),"inconclusive: 17.8 µM [inhibitor, partial curve, poor fit]",–
CC(C)NC(=O)/C=C/c1ccc(F)cc1,–,inactive: 14.4%
Nc1cccc(C(=O)NCC2CCN(Cc3cc(F)cc(F)c3)C2)c1 (centres undefined),active: 28.2 µM,–
CNC(=O)[C@@H](c1ccccc1)N1CCC[C@H]1C(=O)N1CCC1,"inconclusive: 39.8 µM [inhibitor, partial curve, poor fit]",–
Cc1cccc2cc(CN(c3ccccc3)S(C)(=O)=O)c(=O)[nH]c12,"inconclusive: 22.4 µM [inhibitor, single point]",–
CC(C)=CCn1c(-c2ccc(F)cc2)cn2cc(C(=O)N(C)CC(C)O)nc2c1=O (centres undefined),–,inactive: 15.6%
Nc1cc(N)nc(SCCC(=O)Nc2ccc(Br)cc2F)n1,–,inactive: -14.4%
COc1ccc(C(C)NC(=O)c2ccc(-c3ccc(N4CCSCC4)nc3)cc2)cc1 (centres undefined),"inconclusive: 31.6 µM [inhibitor, partial curve, poor fit]",–
COc1ccc(NC(=O)N2CCC(c3noc(-c4cccnc4)n3)C2)cc1 (centres undefined),"inconclusive: 20 µM [inhibitor, partial curve, poor fit]",–
